According to US6303761A, “Triaminepentaacetic acid compound and paramagnetic metal complex prepared from using the compound as ligand” (Department of Health The Executive Yuan, Republic of China, priority 1999, dated 2001):
Entries after “also recorded” stand apart in the source; their conditions may differ.

Assay: Relaxivity R1 and its pH dependence
Conditions: FIG. 12

CNC(=O)CN(CCN(CCN(CC(=O)[O-])CC(=O)NC)CC(=O)[O-])CC(=O)[O-].[Gd+3] [[Gd(DTPA-BMA)], diethylenetriamine pentaacetic acid bis(methylamide)-gadolinium(III)]
pH dependence of relaxivity R1: no pH dependence over the range 4-10; also recorded: in the pH range less than 4.0, R1 increase with the decrease of pH
